Laboratory results reported in PubChem BioAssay AID1508623 (National Center for Advancing Translational Sciences (NCATS), 2021).
Hit rate of the full screen: of about 48,000 compounds, about 450 (0.94%) were called active. About 19% were inconclusive and are not listed. The call rests on the fitted dose curve; in most records, active means well fitted inhibition curve with a large enough effect; inconclusive means small, poorly fitted or top-dose-only effect; inactive means no such curve, though single readings can be large or run the other way. The list shows a part of the results.

test: Primary qHTS for Identification of Small Molecule Inhibitors of Huntingtin Promoter Activity; details: HEK293 HTT promoter firefly luciferase reporter (activity 0% = vehicle and -100% = no light), 24 h; series mostly up to 57.5 µM; activity change, negative = inhibition: at the top concentration; further: nearly all actives have a fitted effect of over 50% in size
How it was run: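 HEK293 Fluc reporter, 2,500 cells/well, 24 h pre-culture; cpds up to 57.5 uM final, 24 h 37 degrees C; Dual-Glo, 10 min RT; normalized vehicle = 0%, zero RLU = -100%.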
Potency means the concentration at half of the fitted maximal effect.

Compound | activity change, negative = inhibition | Potency
Cc1ccccc1-c1noc(-c2cc(C(C)C)[nH]n2)n1 | inactive: 51.2% | –
CCN(CC)S(=O)(=O)c1ccc(C(=O)O)cc1 | inactive: -4.58% | –
COc1ccc(-c2nnc(SCC(=O)c3ccc([N+](=O)[O-])cc3)o2)cc1OC | inactive: 0.742% | –
Cc1ccc(-n2c(SCc3ccccc3C)nc3[nH]ncc3c2=O)cc1C | inactive: -17.6% | –
Cc1cccn2c(=O)c3cc(C(=O)NC(C)c4ccccc4)c(=N)n(CCOCCO)c3nc12 (stereo not given) | inactive: -0.902% | –
CCOC(=O)c1cc(OC(=O)c2cccc(F)c2)n(-c2ccccc2)n1 | inactive: -15% | –
Cc1ccccc1-c1noc(-c2ccc(N3CCCC3)c([N+](=O)[O-])c2)n1 | – | active: 10 µM
CCOc1ccc(N(C(=O)c2ccc(OC)cc2)S(=O)(=O)c2ccc3c(c2)n(C)c(=O)n3C)cc1 | inactive: -13.5% | –
O=C(NCc1cccnc1)C1CCN(Cc2cc3ccccc3n2Cc2ccccc2)CC1 | inactive: -16.4% | –
CCC(=O)OC1=CN(Cc2ccccc2)S(=O)(=O)c2ccccc21 | inactive: -9.86% | –
CC(C)c1ccc(NC(=O)CN2C=NS(=O)(=O)c3ccccc32)cc1 | inactive: -10.3% | –
CCC(=O)C1=C(c2ccc(F)cc2)N(C(=O)CC)n2c(nnc2C2CCCCC2)S1 | inactive: -18.1% | –
Cc1cc(C)cc(NC(=O)CSc2nnc(CNC(=O)c3c(F)cccc3Cl)o2)c1 | inactive: 0.216% | –
CCN(CC)S(=O)(=O)c1ccc2c(c1)N(CC(=O)Nc1c(C)cc(C)cc1C)C(=O)CS2 | inactive: -16.3% | –
COC(=O)c1cc2oc(C)cc2n1Cc1ccc(C)cc1 | inactive: 17.2% | –
Cc1cccc(N2CCN(C(=O)CN3C(=O)COc4ccc(S(=O)(=O)N5CCCC5)cc43)CC2)c1C | inactive: -12.6% | –
N#C/C(=C\c1c(Oc2ccc(F)cc2)nc2ccccn2c1=O)c1nc2ccccc2s1 | inactive: -7.24% [at 11.5 µM] | –
COCC(=O)O[C@]1(CCN(C)CCCc2nc3ccccc3[nH]2)CCc2cc(F)ccc2[C@@H]1C(C)C | inactive: -19.9% | –
O=C1CC(c2ccc(F)cc2)c2c(n3c(nc4ccccc43)[nH]c2=O)N1 (stereo not given) | inactive: -10.3% | –
CCCOc1ccc(C(=O)Nc2sc3c(c2C(=O)OCC)CCCCC3)cc1 | inactive: -2.83% | –
O=C(O)CCCCC1CCSS1 (stereo not given) | inactive: 2.84% | –
Cc1oc(-c2cccc(Br)c2)nc1CSc1nc2ncccc2[nH]1 | inactive: -25.1% | –
O=C(NCc1ccccc1Cl)c1cc(-c2ccccc2)n[nH]1 | inactive: 26.3% | –
COCCn1c(CCC(=O)Nc2ccc(OC)c(OC)c2)nc2cccnc21 | inactive: 9.21% | –

Compound | activity change, negative = inhibition | Potency
O=C(CS(=O)(=O)c1nc(-c2ccc(Cl)cc2)cn1-c1ccccc1)Nc1cccc(Cl)c1 | inactive: -26.7% | –
O=C(Cn1c2ncccc2c(=O)n1-c1ccccc1)NCc1ccccc1 | inactive: -20.5% | –
Cc1oc(-c2cccc(Br)c2)nc1CN1CCC(C(=O)NCc2ccccc2)CC1 | inactive: -11.8% | –
CC(C)NCC(O)c1cc(O)cc(O)c1 (stereo not given) | inactive: -5.57% | –
COc1cccc(C2C(C(N)=O)=C(C)Nc3nc(CCCO)nn32)c1 (stereo not given) | inactive: -8.21% | –
COc1cccc(CNC(=O)Cc2c(C)c3cc4c(C)coc4cc3oc2=O)c1 | inactive: -9.03% | –
Cc1cc(C)cc(NC(=O)CSc2nccn2C2CCCC2)c1 | inactive: -5.09% | –
COc1cccc(NC(=O)c2csc3c2CCCCC3)c1 | inactive: 19% | –
Cc1ccc(CNCc2ccc3c(c2)n(C)c(=O)n3C)cc1 | inactive: -11.9% | –
c1ccc(Nc2c(-c3ccccc3)nc3ncccn23)cc1 | inactive: -19.1% | –
COc1ccc2c(c1)c(=O)c(S(=O)(=O)c1ccc(F)cc1)cn2CC(=O)Nc1ccc(C)cc1C | inactive: -9.64% | –
CCN1C(=O)c2ccccc2Sc2ccc(NC(=O)Cc3ccc(OC)c(OC)c3)cc21 | inactive: -22.8% | –
COc1ccc(CN(C(=O)Nc2cc(C)ccc2C)C2CCN(C(C)=O)CC2)cc1 | inactive: -5.84% | –
COc1cc(NS(=O)(=O)c2ccc(NC(=O)COc3ccc(Cl)cc3Cl)cc2)nc(OC)n1 | inactive: -12.9% | –
CCOc1ccc(NC(=O)CSc2nc(-c3ccccc3)c3cc(OCC)ccc3n2)cc1 | inactive: 3.62% | –
CCOc1ccccc1N(CC)C(=O)Cn1ncc2c1-c1ccccc1OC2 | inactive: -39.4% | –
O=C(NCc1ccccc1Cl)C(=O)NCC(c1ccc2c(c1)OCO2)N1CCOCC1 (stereo not given) | inactive: -29.5% | –
COc1ccc(CNC(=O)c2cnc3sc4cc(OC)ccc4n3c2=O)cc1 | inactive: -7.5% | –
CCC(CC)C(=O)N1CCc2cc(OC)c(OC)cc2C1COc1ccc2c(C)cc(=O)oc2c1 (stereo not given) | inactive: -13.7% | –
CCOc1ccc2nc(N(Cc3cccnc3)C(=O)c3ccco3)sc2c1 | inactive: 21.4% | –
O=C(c1cc(S(=O)(=O)N2CCCC2)c[nH]1)N1CCN(c2cccc(Cl)c2)CC1 | inactive: -16.6% | –
CCCSc1ncc(Cl)c(C(=O)NCc2ccc(C)cc2)n1 | inactive: -28.4% | –
COc1ccc(CNC(=O)CCS(=O)(=O)c2cc3c4c(c2)CCN4C(=O)CC3)cc1OC | inactive: -12.4% | –
COc1ccc(C2C(C(=O)Nc3cccnc3)=C(C)Nc3nc(-c4ccc(OC)c(OC)c4)nn32)cc1 (stereo not given) | inactive: -24.2% | –

Compound | activity change, negative = inhibition | Potency
CCOC(=O)c1c(C)[nH]c(CCC(=O)NCc2cc(Br)ccc2OC)c1C | inactive: -29.8% | –
Cc1c(C(=O)N2CCCC2)oc2c1-c1nn(CC(=O)NCc3ccccc3F)cc1CC2 | inactive: -23.6% | –
Cc1sc(NC(=O)C2c3ccccc3Oc3ccccc32)c(C(=O)OC(C)C)c1C | inactive: -6.49% | –
Cc1ccc(S(=O)(=O)c2nnn3c2nc(N(C)Cc2ccccc2)c2cc(Cl)ccc23)cc1C | inactive: 0.787% | –
CC(C)NC(=O)C1=CC(c2ccc3c(c2)OCO3)=NS(=O)(=O)N1C | inactive: -12.9% | –
Cc1nnc(N2CCCC(C(=O)Nc3cc(F)ccc3F)C2)c2nn(-c3ccccc3)c(C)c12 (stereo not given) | inactive: -3.62% | –
CCCn1cnc2c1c(=O)n(CCCCC(C)=O)c(=O)n2C | inactive: -1.45% | –
CC1CCN(c2nc3ccccc3nc2SCC(=O)Nc2ccccc2C(C)C)CC1 | inactive: -19.6% | –
CCCN1CCN(c2ncnc3sc(C(=O)Nc4ccc(OC(F)(F)F)cc4)c(C)c23)CC1 | inactive: -20.8% | –
CC(=O)c1ccc(NC(=O)Cn2c(=O)nc(-c3ccccc3)c3ccccc32)cc1 | inactive: -17.4% | –
COc1cc(NC(=O)COCc2cc(-c3ccc4c(c3)OCO4)on2)c(OC)cc1Cl | inactive: -8.93% | –
CCOc1ccc(C(=O)c2cn(CC(=O)Nc3ccc(C)c(Cl)c3)c3ccc(OCC)cc3c2=O)cc1 | inactive: -11.4% | –
CCCCC(=O)OCc1cc(=O)n2nc(C3CC3)sc2n1 | inactive: -1.02% | –
O=C(NC1(C(F)(F)F)N=C(c2ccccc2)N(Cc2ccccc2)C1=O)c1ccc(F)cc1 (stereo not given) | inactive: -18.8% | –
CC1CCN(S(=O)(=O)c2ccc3c(c2)N(CC(=O)N(C)Cc2ccccc2)C(=O)CO3)CC1 | inactive: -8.97% | –
Cc1ccccc1CN1C(=O)C(O)(c2c[nH]c3ccccc23)c2cc(Cl)ccc21 (stereo not given) | inactive: -15.3% | –
O=c1c2sc3ccccc3c2n(Cc2cccc(Cl)c2)c(=O)n1Cc1ccc(F)cc1 | inactive: -7.9% | –
O=C(c1ccc2c(c1)N(Cc1ccccc1)C(=O)c1ccccc1S2(=O)=O)N1CCC(Cc2ccccc2)CC1 | inactive: -9.5% | –
Cc1cc(C)c(NC(=O)Cn2nnc3sc4c(c3c2=O)CCC(C(C)(C)C)C4)c(C)c1 (stereo not given) | inactive: 13.6% | –
COc1cc(C2c3c(-c4ccccc4O)n[nH]c3C(=O)N2Cc2ccncc2)cc(OC)c1OC (stereo not given) | inactive: 1.43% | –
COc1ccc(CNC(=O)C2CCN(C(=O)N3CCOc4ccc(C)cc43)CC2)cc1 | inactive: -31.4% | –
CC1CCCN(C(=O)c2ccc(CSc3nc4ccncc4n3Cc3ccccc3)cc2)C1 (stereo not given) | inactive: -23.8% | –
CCc1cc(C(=O)N2CCN(c3ccccc3)CC2)no1 | inactive: -6.58% [at 11.5 µM] | –
Cc1cccc(-n2c(=O)c3c(c4cc(C)ccc4n3C)n(CC(=O)Nc3ccc(C)c(C)c3)c2=O)c1 | inactive: -20.9% | –

Compound | activity change, negative = inhibition | Potency
COc1ccccc1N1CCN(c2c3c(nc4nncn24)CCC3)CC1 | inactive: -7.88% | –
CC(C)(C)NC(=O)Cn1cc(S(=O)(=O)Cc2ccccc2Cl)c2ccccc21 | inactive: 10.3% | –
Cc1cccc(NC(=O)Cn2c(=O)n(Cc3nc(-c4ccccc4)no3)c(=O)c3ccccc32)c1 | inactive: -32.4% | –
COC(=O)c1sccc1S(=O)(=O)N(CC(=O)NCc1ccc(F)cc1)c1ccccc1 | inactive: -12.7% | –
COc1ccc(C)cc1NS(=O)(=O)c1ccc2c(c1)CCCN2C(C)=O | inactive: -14.8% | –
C#CCN(C)CCCOc1ccc(Cl)cc1Cl | inactive: 7.23% | –
COc1ccc(-c2nc(SCC(=O)NCC3CCCO3)c(-c3ccc(C)cc3)[nH]2)cc1OC (stereo not given) | inactive: 4.77% | –
COc1ccc(NC(=O)N2CCN(Cc3nc4ccc(C)cc4o3)CC2)cc1OC | inactive: -20.4% | –
COc1ccc(-c2c(C#N)c(SCC(=O)Nc3ccc(C)c(C)c3)nc(C)c2C(=O)Nc2ccccc2)cc1OC | inactive: -17.9% | –
Cc1ccc(N(C)S(=O)(=O)c2nnc(NC(=O)c3ccco3)s2)cc1 | inactive: -5.1% | –
O=C(O)CN(CCN(CC(=O)O)CC(=O)O)CCN(CC(=O)O)CC(=O)O | inactive: -7.61% [at 25.2 µM] | –
CCc1ccc(NCc2cc3cc4c(cc3n(CC(=O)Nc3ccc(OC)cc3)c2=O)OCO4)cc1 | inactive: -20.4% | –
CCc1ccc(C2c3c(-c4cc(C)ccc4O)n[nH]c3C(=O)N2CCO)cc1 (stereo not given) | inactive: -16.7% | –
Cn1c(SCC(=O)N2CCOCC2)ncc(C(=O)Nc2ccc(F)cc2)c1=O | inactive: 0.0161% | –
CCCSc1nc2sc3c(c2c(=O)n1-c1ccc(C)cc1)CCCC3 | inactive: -9% | –
CCOC(=O)c1c(S(=O)(=O)NCC(=O)Nc2cccc(SC)c2)c(C)n(C)c1C | inactive: 1.48% | –
COc1ccc(NC(=O)CCCS(=O)(=O)c2nc(-c3ccccc3OC)cc(C(F)(F)F)n2)c(OC)c1 | inactive: 15.2% | –
CC1=C(c2ccc(C(C)C)cc2)S(=O)(=O)NC1=NCc1ccc(OC(C)C)cc1 | inactive: -19.6% | –
Cc1ccc(CNC(=O)C2CCCN(c3nc4ccccc4n4cccc34)C2)cc1 (stereo not given) | inactive: -24.2% | –
COc1ccc(C(C)NC(=O)CN(c2cc(OC)ccc2OC)S(=O)(=O)c2ccccc2)cc1 (stereo not given) | inactive: -16.8% | –
CC1CCN(CCCNC(=O)CN2C(=O)CSc3ccc(S(=O)(=O)N4CCCCC4)cc32)CC1 | inactive: -0.438% | –
Brc1cccc(-c2nn(-c3ccccc3)c3c2cnc2cc4c(cc23)OCO4)c1 | inactive: -4.58% | –
CCc1cccc(C)c1NC(=O)C1CCN(S(=O)(=O)c2cc(Br)cc3c2N(C(C)=O)CC3)CC1 | inactive: 12.7% | –
